Data on 49 compounds can be found in PubChem BioAssay AID1645882 (National Center for Advancing Translational Sciences (NCATS), 2021).

Screen size: about 16,000 compounds; about 120 (0.75%) were called active. Roughly 4% stayed inconclusive and do not appear here. The call rests on the fitted dose curve; in most records, active means well fitted inhibition curve with a large enough effect; inconclusive means small, poorly fitted or top-dose-only effect; inactive means no such curve, though single readings can be large or run the other way. This is one part of the list.

Sequence of UniProt O95398 (O95398 whole entry, looked up): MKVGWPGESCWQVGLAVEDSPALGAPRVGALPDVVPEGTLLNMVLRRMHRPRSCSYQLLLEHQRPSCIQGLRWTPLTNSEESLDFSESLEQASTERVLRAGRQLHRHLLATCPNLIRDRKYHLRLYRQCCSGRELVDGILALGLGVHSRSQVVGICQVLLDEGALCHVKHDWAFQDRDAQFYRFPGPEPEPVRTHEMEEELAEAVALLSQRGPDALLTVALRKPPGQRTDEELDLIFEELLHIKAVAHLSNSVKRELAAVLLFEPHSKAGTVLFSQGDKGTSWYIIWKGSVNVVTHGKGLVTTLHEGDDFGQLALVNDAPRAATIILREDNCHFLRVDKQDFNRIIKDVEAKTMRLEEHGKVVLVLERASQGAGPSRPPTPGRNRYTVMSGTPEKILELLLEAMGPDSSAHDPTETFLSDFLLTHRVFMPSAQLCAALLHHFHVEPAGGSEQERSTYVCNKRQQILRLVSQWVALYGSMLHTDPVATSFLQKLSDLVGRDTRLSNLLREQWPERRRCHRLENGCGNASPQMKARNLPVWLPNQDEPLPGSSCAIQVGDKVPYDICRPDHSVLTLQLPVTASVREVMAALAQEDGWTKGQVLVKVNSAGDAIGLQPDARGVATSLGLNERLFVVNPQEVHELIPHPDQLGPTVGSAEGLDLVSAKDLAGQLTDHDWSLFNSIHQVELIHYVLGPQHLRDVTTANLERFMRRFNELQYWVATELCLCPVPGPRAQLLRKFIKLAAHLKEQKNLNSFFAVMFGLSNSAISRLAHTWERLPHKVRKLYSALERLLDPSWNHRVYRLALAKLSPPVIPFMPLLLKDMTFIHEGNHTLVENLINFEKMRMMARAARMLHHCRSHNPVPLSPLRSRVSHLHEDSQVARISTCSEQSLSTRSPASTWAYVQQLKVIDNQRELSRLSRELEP

The target of the test is Rap guanine nucleotide exchange factor 3 (Homo sapiens) (UniProt O95398). The experiment in a line: Validation qHTS for antagonist of cAMP-regulated guanine nucleotide exchange factor 3 (EPAC1). Further: nearly all actives have a fitted effect of over 75% in size. The following applies: EPAC1 Rap1B-BODIPY-GDP exchange, fluorescence; series mostly up to 150 µM; activity change, negative = inhibition: at the top concentration. From the text:
Assay Provider (PI): Xiaodong Cheng Ph.D.
The University of Texas Medical Branch, […], TX
In multi-cellular eukaryotic organisms, the effects of cAMP are transduced by two ubiquitously-expressed intracellular cAMP receptors, the classic protein kinase A/cAMP-dependent protein kinase (PKA/cAPK) and the more recently discovered exchange protein directly activated by cAMP/cAMP-regulated guanine nucleotide exchange factor (EPAC/cAMP-GEF). Both PKA and EPAC are ubiquitously expressed in all tissues, and an increase in intracellular cAMP levels will lead to the activation of both PKA and EPAC. Therefore, careful dissections of the individual role and relative contribution of EPAC and PKA within the overall cAMP signaling in various model systems are critical for further elucidating the mechanism of cAMP signaling. To date no EPAC-specific antagonists and agonist, as well as isoform-specific agonists have been reported, and developing EPAC-specific pharmacological probes to determine the physiological functions that EPAC play in the overall cAMP-mediated signaling remains a major challenge within the research field. Furthermore, identified regulators of EPAC may lead to new mechanism-based therapeutic strategies specifically targeting the EPAC / cAMP-signaling components as EPAC has been implicated to play important roles in major human pathological conditions such as diabetes, heart disease, and cancer.
This qHTS will be used to screen the Molecular Libraries Small Molecule Repository (MLSMR) as a concentration-titration series using the NCGC unique quantitative screening (qHTS) platform to find activators for EPAC1. In addition, this assay will also be used as a counterscreen for the EPAC2 qHTS. This fluorescent based assay is developed and validated for EPAC1 that measures exchange using EPAC effector Rap1 complex with BODIPY-GDP, a GDP analog with a tethered fluorophores. Activators are identified by monitoring the change in fluorescence signal as the exchanged free BODIPY-GDP has a reduced fluorescence compared to Rap1-bound BODIPY-GDP. Increase in signal (activation) is the desired outcome for the EPAC1 agonist while no activity in this assay is desired for the EPAC2 agonist counterscreen.
[1] de Rooij, J., Zwartkruis, F. J., Verheijen, M. H., Cool, R. H., Nijman, S. M., Wittinghofer, A., and Bos, J.L. (1998) Nature 396, 474-477.
Briefly, three uL of reagents (100 nM EPAC1, 250 nM RAP1B-BODIPY-GDP, 50 uM GDP) were dispensed into a 1536-well Greiner black solid-bottom medium binding assay plate. Controls and test compounds (23 nL) were transferred to the plate via a Kalypsys pin tool equipped with a 1536-pin array. The plates were centrifuged at 1,000 rpm for 15 seconds followed by 5 minute incubation at room temperature. The assay plates were read at 5 minute intervals for 30 minutes in the ViewLux plate reader using 480nm excitation and 540nm emission filters. The results were normalized to the […] positive control ATA and DMSO.
Regarding `COC(=O)c1cc(CNC(=O)c2ccccc2OC)cc(NC(=O)c2ccccc2F)c1`, the “activity change, negative = inhibition” value is inactive: -11.5%.

`O=C(O)C1=CCNCC1`: the activity change, negative = inhibition result was “inactive”.

For `OCc1ccccc1`, the “activity change, negative = inhibition” value was inactive: 17.4%.

In the case of `COc1ncc2nc(-c3cccc(C#N)c3)c(=O)n(CCC#N)c2n1`, the “activity change, negative = inhibition” value is inactive: -6.3%.

`CCn1c(=O)[nH]c2ccccc21`: the “activity change, negative = inhibition” value is inactive: 12.6%.

As to `CN(C)C(=O)[C@@H]1C[C@@H](Sc2nc3ccccc3[nH]2)CN1Cc1ccnc2ccccc12`, the “activity change, negative = inhibition” value was inactive: 13.1%.

For `CC1(C)C2CC[C@]3(C)[C@H](C(=O)C=C4[C@@H]5C[C@@](C)(C(=O)O)CC[C@]5(C)CC[C@]43C)[C@@]2(C)CC[C@@H]1O[C@H]1O[C@H](C(=O)O)[C@@H](O)[C@H](O)[C@H]1O[C@@H]1O[C@H](C(=O)O)[C@@H](O)[C@H](O)[C@H]1O` (some centres undefined), the “activity change, negative = inhibition” value was inactive: 9.54%.

Consider `CN1CCC2(CC1)CCN(C(=O)c1ccncc1)CC2`, for which the “activity change, negative = inhibition” value is inactive: 6.83%.

Turning to `CCOc1ccc(CN2CCOc3ccc(C(O)c4cccnc4)cc3C2)cc1` (centres undefined), the “activity change, negative = inhibition” value is inactive: 8.72%.

For the compound `CC(O)[C@@H](N)C(=O)O` (some centres undefined), the “activity change, negative = inhibition” value was inactive: 14.2%.

With `C[C@H](N)C(=O)O`, the “activity change, negative = inhibition” value was inactive: 11.2%.

Take `CCc1ccccc1N(C)C`: the “activity change, negative = inhibition” value is inactive: 22.1%.

With `NCC(O)c1ccc(O)c(O)c1` (centres undefined), the “activity change, negative = inhibition” value was inactive: -11.8% [at 75.8 µM].

As to `COc1cccc(CN2CCC3(CCC(CNC(=O)c4ccco4)O3)CC2)c1OC` (centres undefined), the “activity change, negative = inhibition” value is inactive: 4.54%.

For `O=C(NCCO)c1cn(C2CCCN(Cc3cccc(C(F)(F)F)c3)C2)nn1` (centres undefined), the “activity change, negative = inhibition” value is inactive: 9.22%.

Regarding `O=c1ccc2c(OCCCCc3ccccc3)c3ccoc3cc2o1`, the “activity change, negative = inhibition” value is inactive: -9.32% [at 75.8 µM].

Consider `Cc1cccc2c(N3CCCC3)nc(CNS(=O)(=O)c3ccc4ccccc4c3)nc12`, for which the “activity change, negative = inhibition” value was inactive: -2.47%.

Take `Cn1cc(-c2nc3cncnc3n(C3CC3)c2=O)c2ccccc21`: the “activity change, negative = inhibition” value is inactive: 11.2%.

Turning to `O=C(c1cccc(F)c1)N1CCC[C@@]2(CCN(Cc3ccncc3)C2)C1`, the “activity change, negative = inhibition” value is inactive: 11.1%.

`CCn1cc(C(=O)O)c(=O)c2cc(F)c(N3CCNC(C)C3)c(F)c21` (centres undefined): the activity change, negative = inhibition result was “inactive”.

Regarding `COc1ccc(CN2C[C@H](Cc3ccccc3)[C@@H](CC(=O)Nc3ccccc3)C2=O)cc1`, the “activity change, negative = inhibition” value was inactive: 3.61%.

For `NC(=O)c1cc[n+](CC2=C(C(=O)O)N3C(=O)[C@@H](NC(=O)C(c4ccccc4)S(=O)(=O)[O-])[C@H]3SC2)cc1` (some centres undefined), the “activity change, negative = inhibition” value was inactive: -3.23% [at 75.8 µM].

Regarding `COCCn1c(=O)c(-c2ccc(Cl)cc2)nc2cnc(N3CCOCC3)nc21`, the “activity change, negative = inhibition” value is inactive: 23.6%.

Regarding `CS(=O)(=O)Nc1ccc([N+](=O)[O-])cc1Oc1ccccc1`, the activity change, negative = inhibition entry was “inactive”.

On to `COc1cc(C)nc(-n2nc(C)cc2OC)n1`, for which the “activity change, negative = inhibition” value is inactive: 18.8% [at 75.8 µM].

As for `CCOC(=O)CCC(=O)O[C@H]1[C@H](O[C@@H]2[C@@H](C)[C@H](O[C@H]3C[C@@](C)(OC)[C@@H](O)[C@H](C)O3)[C@@H](C)C(=O)O[C@H](CC)[C@@](C)(O)[C@H](O)[C@@H](C)C(=O)[C@H](C)C[C@@]2(C)O)O[C@H](C)C[C@@H]1N(C)C`, the “activity change, negative = inhibition” value is inactive: 14.8%.

Regarding `CCCCCCCCCCCCC/C=C\[C@@H](O)[C@@H](N)CO`, the “activity change, negative = inhibition” value was inactive: -2.06%.

Regarding `CCCCCCCCCCCCCCCCCCN(CCCCCCCCCCCCCCCCCC)c1ccc(/C=C/c2ccc(C=O)cc2)cc1`, the “activity change, negative = inhibition” value is inactive: 6.62%.

Regarding `Nc1ccc(C(=O)Nc2ccccc2N)cc1`, the “activity change, negative = inhibition” value was inactive: 3.53%.

With `C[C@](N)(C(=O)O)c1ccc(-c2nn[nH]n2)cc1`, the “activity change, negative = inhibition” value is inactive: -12.1%.

Consider `COc1ccc2[nH]cc(CCNc3ncncc3-c3ccoc3)c2c1`, for which the “activity change, negative = inhibition” value was inactive: -17.4%.

Regarding `Cc1ccccc1-n1cc(CNC(=O)CN2Cc3ccccc3OC(C)C2)cn1` (centres undefined), the “activity change, negative = inhibition” value was inactive: 1.56%.

As to `COc1cccc(C2(CC(=O)N3CCC(c4nc5ccccc5o4)CC3)CC(=O)N(C)C2=O)c1` (centres undefined), the “activity change, negative = inhibition” value was inactive: 7.68%.

With `CN(Cc1ccco1)c1ncnc2ccc(-c3cccnc3)cc12`, the “activity change, negative = inhibition” value was inactive: -9.15%.

For `CC(=O)c1ccccc1-c1ccc2c(c1)CC(CNC(=O)Cc1c[nH]c3ccccc13)O2` (centres undefined), the “activity change, negative = inhibition” value was inactive: 5.91%.

With `Nc1ncnc2nc(-c3ccc(N4CCOCC4)nc3)cc(-c3cccc(Br)c3)c12`, the “activity change, negative = inhibition” value is inactive: -1.94% [at 75.8 µM].

For the compound `C[C@]12C=CC(=O)C=C1CC[C@@H]1[C@@H]2C(=O)C[C@@]2(C)[C@H]1CC[C@]2(O)C(=O)CO`, the “activity change, negative = inhibition” value is inactive: 13.5%.

As to `C=CCn1c(=O)n([C@@H]2O[C@H](CO)[C@@H](O)[C@H]2O)c2nc(N)[nH]c(=O)c21`, the “activity change, negative = inhibition” value was inactive: 11.5%.

For `O=C1CCN(Cc2ccc(Br)cc2)CCN1[C@H](CO)c1ccccc1`, the “activity change, negative = inhibition” value was inactive: -20.5%.

In the case of `CN(C)C(=O)c1ccc(-c2nccc(NCc3ccccc3)n2)cc1`, the “activity change, negative = inhibition” value is inactive: 16.6%.

`C[C@]12C=CC(=O)C=C1CC[C@@H]1C2=CC[C@]2(C)[C@@H](C(=O)CN3CCN(c4cc(N5CCCC5)nc(N5CCCC5)n4)CC3)CC[C@@H]12`: the “activity change, negative = inhibition” value is inactive: 2.13% [at 75.8 µM].

On to `CC(C)[C@@H]1NC(=O)[C@H](Cc2ccccc2)NC(=O)[C@@H](CC(=O)O)NC(=O)CNC(=O)[C@H](CCCNC(=N)N)NC1=O`, for which the “activity change, negative = inhibition” value is inactive: 22.4%.

`COc1ccccc1-c1nccc(NCc2cccc(C)c2)n1`: the “activity change, negative = inhibition” value was inactive: 18.2%.

Turning to `CN(C)C(=O)c1ccc(-c2cncnc2Nc2ccc(F)cc2)cc1`, the “activity change, negative = inhibition” value is inactive: 7.82%.

As to `COc1ccccc1CNc1ccnc(-c2cccnc2)n1`, the “activity change, negative = inhibition” value was inactive: -1.54%.

As to `CN1CCN(C2=Nc3ccccc3Sc3ccc(Cl)cc32)CC1`, the activity change, negative = inhibition entry is “inactive”.

As for `O=C(O)c1cc(=O)c2c3nc4ccccc4oc-3cc(=O)c2[nH]1`, the “activity change, negative = inhibition” value is inactive: -10.9%.

As to `CC1(C)[C@@H](O[C@H]2O[C@H](C(=O)O)[C@@H](O)[C@H](O)[C@H]2O[C@@H]2O[C@H](C(=O)O)[C@@H](O)[C@H](O)[C@H]2O)CC[C@]2(C)[C@H]3C(=O)C=C4[C@@H]5C[C@@](C)(C(=O)O)CC[C@]5(C)CC[C@@]4(C)[C@]3(C)CC[C@@H]12`, the “activity change, negative = inhibition” value is inactive: 18.7%.

`CO[C@H]1C[C@H](O[C@H]2[C@H](C)[C@@H](O[C@@H]3O[C@H](C)C[C@H](N(C)C)[C@H]3OC(C)=O)[C@@H](C)C[C@]3(CO3)C(=O)[C@H](C)[C@@H](OC(C)=O)[C@@H](C)[C@@H](C)OC(=O)[C@@H]2C)O[C@@H](C)[C@@H]1OC(C)=O`: the “activity change, negative = inhibition” value is inactive: -9.82% [at 75.8 µM].
